# Laboratory results reported in paper PMC7819943, “Rice protein-binding microarrays: a tool to detect cis-acting elements near promoter regions in rice”.
# Some of the results follow.
# Target: T1, OsWOX13 (Oryza sativa, UniProt Q5QMM3 1-267)
# T1 sequence: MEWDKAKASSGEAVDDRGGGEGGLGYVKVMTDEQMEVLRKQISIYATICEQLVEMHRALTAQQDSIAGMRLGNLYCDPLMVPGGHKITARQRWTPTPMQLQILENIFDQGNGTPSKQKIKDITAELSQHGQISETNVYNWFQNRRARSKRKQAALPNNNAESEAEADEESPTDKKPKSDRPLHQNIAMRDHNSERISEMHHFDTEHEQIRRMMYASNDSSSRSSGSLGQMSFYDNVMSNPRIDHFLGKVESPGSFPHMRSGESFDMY
# Assay: protein-binding microarray (RPBM); PBS, 2% BSA, 51.3 ng/ul salmon testes DNA, 50 uM zinc acetate, 200 nM TF, 25 C, 1 h; high values mean tight binding
# Details: protein: recombinant; tags: N-terminal polyhistidine and DsRed monomer fusion (pET32a); label: CyDye5-dUTP incorporated in the synthesized complementary strand; 3' TTTTT single-stranded linker to array surface; dsDNA, one strand shown
# Outline: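 Binding signal is defined as the fluorescence intensity of each feature in arbitrary units, read on an Axon 4000B scanner. Transcription factors with N-terminal polyhistidine and DsRed fusions came from E. coli BL21-CodonPlus and were purified on Ni–NTA. They were incubated at 200 nM for 1 h at 25 °C on a custom Agilent array that had been made double-stranded with Cy5-dUTP, with 50 µM zinc acetate present, and the array was washed.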
row,Sequence,binding signal
1,GAGCAAATAATTGCACTCCACTGGAGTACCCGTAGTACGACGGAGTCACCTAGTGCAG,3620 fluorescence intensity (a.u.)
2,GTTAGATTGTAACAATAAACTGTAACTCTCCTGAGCAGAGCGGAGTCACCTAGTGCAG,22700 fluorescence intensity (a.u.)
3,TTACGAAAACAGTTAAATTGAATGGAACCAAGCCAGATCACGGAGTCACCTAGTGCAG,6460 fluorescence intensity (a.u.)
4,GCCTAATTAATCCATCATTAGCAAATGTTTACTGTAGCACCGGAGTCACCTAGTGCAG,48200 fluorescence intensity (a.u.)
5,AGCAGATGAGAACAGTGATTTGTATCTTTCTGAGCACTATCGGAGTCACCTAGTGCAG,11800 fluorescence intensity (a.u.)
6,TTTAATCACTAATTAATTGTTGATTAGCGGCAAGTGTGACCGGAGTCACCTAGTGCAG,63800 fluorescence intensity (a.u.)
7,CTAATTAATCATCAGTTGATAATTTCCCTAACTGTGGCGTCGGAGTCACCTAGTGCAG,49600 fluorescence intensity (a.u.)
8,AAATAATTTACTAAAATTTTGGTAATATTATCAATTTACCCGGAGTCACCTAGTGCAG,21700 fluorescence intensity (a.u.)
9,ATCCAAATTAATTTCATGTGATGTGCAGCAGTAGGAGGTACGGAGTCACCTAGTGCAG,43800 fluorescence intensity (a.u.)
10,TATAAATTTGCCTCAATAATGGTGAAGTGAGCGTTGCTCACGGAGTCACCTAGTGCAG,4200 fluorescence intensity (a.u.)
11,CCTTGATGACATGCTCTGACAGCTCATGAGTTCTACTGGACGGAGTCACCTAGTGCAG,24200 fluorescence intensity (a.u.)
12,TATTATATATCACACAAATTAAATAGGAAAGTAATTTGATCGGAGTCACCTAGTGCAG,4010 fluorescence intensity (a.u.)
13,TCAGATTAACAACACAAACCGACAGTCAAAACTGAATTAGCGGAGTCACCTAGTGCAG,7060 fluorescence intensity (a.u.)
14,AAGCATAAATTGGTCCGCATCTTGCTTGTGTAAGCTGTCCCGGAGTCACCTAGTGCAG,8510 fluorescence intensity (a.u.)
15,GGCGGTGTTAATTGCGATCAGATTATAAAACGAGACCTAGCGGAGTCACCTAGTGCAG,24900 fluorescence intensity (a.u.)
16,AATATATCCAATAATTGATTTAAGGGAACTAATCTGAACACGGAGTCACCTAGTGCAG,28400 fluorescence intensity (a.u.)
17,CATAATTAATAGCACTTCCGATCTGACCACTTGATATATTCGGAGTCACCTAGTGCAG,12700 fluorescence intensity (a.u.)
18,ACATTGGTGATTTTGGTAATTTTAGGCAGGAAACAACTGCCGGAGTCACCTAGTGCAG,9730 fluorescence intensity (a.u.)
19,TTAAAATGCTGAGTTATAATCAATTTGTGTTTGAAATGCACGGAGTCACCTAGTGCAG,4820 fluorescence intensity (a.u.)
20,GTACAAATATAATTATACAGCCTCCAAAATGTTGCTTTAACGGAGTCACCTAGTGCAG,6190 fluorescence intensity (a.u.)
21,CGTACTGATGGAAACGAGAAATAGCTAAGCTGAACCAGCTCGGAGTCACCTAGTGCAG,3580 fluorescence intensity (a.u.)
22,AGTTACTCGTCAAATCACCAATTTCACCAGCCGTCGGTCCCGGAGTCACCTAGTGCAG,3530 fluorescence intensity (a.u.)
23,AGGTAAATTTTGCTACATGACATCGTGACTTTGCGGTTTTCGGAGTCACCTAGTGCAG,8890 fluorescence intensity (a.u.)
24,TTTTAACGAAATTTTCATGGGGCAAATTTGGATCGCGACCCGGAGTCACCTAGTGCAG,4220 fluorescence intensity (a.u.)
25,TATATATATATATATATATATATAAAATAAGAAAATCTGACGGAGTCACCTAGTGCAG,39500 fluorescence intensity (a.u.)
26,AGGCCTGATTGAGACAACTATCATTCGTAATGAGCTTAACCGGAGTCACCTAGTGCAG,34300 fluorescence intensity (a.u.)
27,TAATAATCATTTTCTCAGTAAATTCACATACACAAAGATGCGGAGTCACCTAGTGCAG,3210 fluorescence intensity (a.u.)

row,Sequence,binding signal
1,GATTGATTATTGCCGCGAATATATTGTTGCACCTCGCTTTCGGAGTCACCTAGTGCAG,45700 fluorescence intensity (a.u.)
2,TCAAAAGCTTATTGATTAATTGTAAACCATAAAACTTCAGCGGAGTCACCTAGTGCAG,6990 fluorescence intensity (a.u.)
3,CGCAATGATTTCTTCTTCTTGTACCACACTGCTTCTGCTGCGGAGTCACCTAGTGCAG,20700 fluorescence intensity (a.u.)
4,TCATGATTTGACAATGTGTTACTACAATAAATATTTGCTACGGAGTCACCTAGTGCAG,28900 fluorescence intensity (a.u.)
5,TGAGCTGATTGATCGTCTGAAGGGTGTCTGATTGTCAAGTCGGAGTCACCTAGTGCAG,52800 fluorescence intensity (a.u.)
6,ATCTTTTGAATCAATCCTAATAACCAAATAATAACCTCCACGGAGTCACCTAGTGCAG,3180 fluorescence intensity (a.u.)
7,TTTAAATAACAGATAATTGACGTGATGAGTATGACTATATCGGAGTCACCTAGTGCAG,26800 fluorescence intensity (a.u.)
8,ATAAATTGAAATAGTTCAAAACCCTACTTTTCAAACTTGTCGGAGTCACCTAGTGCAG,41900 fluorescence intensity (a.u.)
9,ATTAATTAATTAACCTCTAACATTTAACTAATGCAGGTAACGGAGTCACCTAGTGCAG,56900 fluorescence intensity (a.u.)
10,TGGAGATTGGAGTTTGGAGTTTGGAGAGAGAGAAATGCAACGGAGTCACCTAGTGCAG,5290 fluorescence intensity (a.u.)
11,TCAGTGTAATTTGACTCCCTCAACGATTTTGGATGGCAGTCGGAGTCACCTAGTGCAG,5230 fluorescence intensity (a.u.)
12,CCTAAATTGAAAATATGAGTTAAACGGTTCATATTTTGAGCGGAGTCACCTAGTGCAG,10900 fluorescence intensity (a.u.)
13,GCCGAAATTGACATGTGACGCCCATAGTAAAGCCCACACGCGGAGTCACCTAGTGCAG,39700 fluorescence intensity (a.u.)
14,TCTTGTTGTTCAATCAGCTTGGACACTAAAATTCATGGTTCGGAGTCACCTAGTGCAG,6590 fluorescence intensity (a.u.)
15,GGTTGTGCATGCACACTAATTAATTTGTGACGATTAAGTGCGGAGTCACCTAGTGCAG,3770 fluorescence intensity (a.u.)
16,CAGAATGATTTGTGCTACCGGCCTCGGGGTGAGATGGAAACGGAGTCACCTAGTGCAG,14000 fluorescence intensity (a.u.)
17,TCTAATTTATTAGAGCGCCACATGACGGCTTGAGAGCGTTCGGAGTCACCTAGTGCAG,19200 fluorescence intensity (a.u.)
18,CAAAATTTTAAATTTGATTTACGGTTGACAATAATAATAACGGAGTCACCTAGTGCAG,25200 fluorescence intensity (a.u.)
19,GTCCTTCCAATCATACTACTTTTGTGTCAACCCTTTTACACGGAGTCACCTAGTGCAG,9270 fluorescence intensity (a.u.)
20,CATGTACCATTGATAACTGGTTGACAGGATGCAAGCTGAGCGGAGTCACCTAGTGCAG,3920 fluorescence intensity (a.u.)
21,TAGAAATTAGTGAAAGGAATGGAGGTAGTTTGACTTGTCTCGGAGTCACCTAGTGCAG,3460 fluorescence intensity (a.u.)
22,CATATGATTAATTAAAATTTTATCATTTAGAACTTGAAAACGGAGTCACCTAGTGCAG,34800 fluorescence intensity (a.u.)
23,GAGAATTATCTAAAATAATTCGTGCAAGATAAAATCATGGCGGAGTCACCTAGTGCAG,3210 fluorescence intensity (a.u.)
24,ACAATGATTGATTAATGTTTGATAGTAACAGCCATGAGAGCGGAGTCACCTAGTGCAG,58800 fluorescence intensity (a.u.)
25,GATTAAACAATTTGACATGCTAATGTGATCTCTGGTGTGACGGAGTCACCTAGTGCAG,6330 fluorescence intensity (a.u.)
26,TTAATTAGGCTAAATAGATTCATCTCGTGAATTAGTCCAACGGAGTCACCTAGTGCAG,18900 fluorescence intensity (a.u.)
27,ATTCAAATGAATAACAAATTAACAATATTCATATGTATAACGGAGTCACCTAGTGCAG,4670 fluorescence intensity (a.u.)
